# From PubChem BioAssay AID624417 (National Center for Advancing Translational Sciences (NCATS), 2012)
# Several values for one entry are separate records, joined by “and”; a condition that tells them apart may be missing. Equal values may be shown once. The campaign covered roughly 410,000 compounds. About 6,400 (1.6%) were called active. The shares of active, inactive and inconclusive entries below differ from those in the screen. Calls come from the whole dose curve; as a rule, active = well fitted inhibition curve with a large enough effect; inconclusive = small, poorly fitted or top-dose-only effect; inactive = no such curve, though single readings can be large or run the other way. Where the call is inconclusive, the potency comes from a doubtful curve fit.
# Molecular target: Glucagon-like peptide 1 receptor (Homo sapiens) (UniProt P43220)
# Test: qHTS of GLP-1 Receptor Inverse Agonists (Inhibition Mode); note: nearly all actives have a fitted effect of over 55% in size
# Settings: HEK293 GLP-1R CRE-luciferase, luminescence, 24 h, GLP-1R form is constitutively active; activity change, negative = inhibition: at 38.3 µM (top of the series) unless noted
# Summary of the method: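 Stable HEK293 clone (constitutively active GLP-1R + cAMP-response luciferase); 200 cells/uL plated, 12 h pre-culture, compound 24 hr, 37 deg C/5% CO2; detection reagent 12 min RT; luminescence.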
# % is set by controls: 0 for no effect and ±100 for the full control effect; potency is the fitted concentration of half-maximal effect; tags give direction and shape of the fitted curve.
# UniProt P43220, sequence (P43220 whole entry, looked up): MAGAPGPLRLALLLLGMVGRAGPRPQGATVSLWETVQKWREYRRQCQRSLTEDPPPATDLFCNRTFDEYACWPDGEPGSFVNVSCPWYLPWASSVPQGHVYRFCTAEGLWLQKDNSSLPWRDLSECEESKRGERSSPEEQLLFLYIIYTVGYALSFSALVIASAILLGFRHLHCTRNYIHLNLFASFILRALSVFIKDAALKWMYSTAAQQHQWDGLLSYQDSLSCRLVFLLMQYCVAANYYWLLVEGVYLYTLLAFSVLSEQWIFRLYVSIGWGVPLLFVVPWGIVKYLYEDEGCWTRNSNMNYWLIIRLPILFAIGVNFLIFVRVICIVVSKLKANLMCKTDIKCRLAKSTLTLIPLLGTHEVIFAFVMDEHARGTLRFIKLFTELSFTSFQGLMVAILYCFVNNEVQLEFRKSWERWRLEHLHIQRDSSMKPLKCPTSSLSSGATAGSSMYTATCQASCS
Compound,Potency,"activity change, negative = inhibition"
CCCOc1ccc(CSCCNC(=S)Nc2ccccc2)cc1,"inconclusive: 22.4 µM [inhibitor, single point]",–
O=C(NCc1ccccc1CN1CCCC1)C1CCN(S(=O)(=O)c2ccc(Cl)cc2)CC1,"inconclusive: 31.6 µM [inhibitor, single point]",–
Cn1c(=O)c2c(nc(CN3CCN(Cc4ccccc4)CC3)n2Cc2ccc(Cl)cc2)n(C)c1=O,"inconclusive: 28.2 µM [inhibitor, single point]",–
O=C(COC(=O)c1ccc([N+](=O)[O-])o1)Nc1cccc(S(=O)(=O)N2CCOCC2)c1,inactive,–
COc1ccc(S(=O)(=O)c2c(C)c(NS(=O)(=O)c3ccccc3)cc(C)c2O)cc1,"inconclusive: 10 µM [inhibitor, partial curve, poor fit] and inconclusive: 12.6 µM [inhibitor, single point]",–
Cc1onc(-c2ccccc2)c1C(=O)OCCOc1cccc(Cl)c1,"inconclusive: 11.2 µM [inhibitor, partial curve, poor fit]",–
Brc1ccc(CN2CCN(Cc3c[nH]c4ccccc34)CC2)cc1,–,inconclusive: -85.6% [inhibitor]
O=[N+]([O-])c1ccc(/C=N/NC(=S)Nc2ccc(Cl)cc2Cl)s1,"inconclusive: 31.6 µM [inhibitor, single point]",–
COc1ccc(CC(N)c2csc(Nc3ccc(S(C)(=O)=O)cc3)n2)cc1 (configuration not stated),"inconclusive: 28.2 µM [inhibitor, single point]",–
C[C@@H]1ON(C)[C@H]2C[C@H]3c4[nH]c5ccc(-c6ccc7c(c6)OCO7)cc5c4CCN3C(=O)[C@@H]12,"inconclusive: 28.2 µM [inhibitor, single point]",–
CCN(CC)C(=O)C1=C(C)N(Cc2ccccc2)C(=O)C(CC(=O)NC(c2ccccc2)c2ccccc2)C1 (configuration not stated),"inconclusive: 22.4 µM [inhibitor, single point]",–
COc1ccc2cc3cc(C(=O)NCCCN4CCc5ccccc5C4)sc3nc2c1,inactive,–
O=C1NC2(CCCCCCC2)C(=O)N1Cc1ccc(F)cc1,"inconclusive: 10 µM [inhibitor, partial curve, poor fit]",–
Cc1ccnc(N2CCC(C(=O)NCc3ccc4c(c3)OCO4)CC2)n1,inactive,–
CCCc1c(C(=O)N/N=C/c2ccccc2C(F)(F)F)nnn1-c1nonc1N,"inconclusive: 2 µM [inhibitor, partial curve, poor fit]",–
COc1cccc(C(O)c2ncc(-c3ccc4ccccc4c3)[nH]2)c1 (configuration not stated),"inconclusive: 14.1 µM [inhibitor, single point]",–
CCN(CC)CCN(Cc1cc2cc(C)ccc2[nH]c1=O)C(=S)NCc1ccco1,"inconclusive: 17.8 µM [inhibitor, partial curve, poor fit]",–
CCc1nc2c(OCc3ccc(F)c(F)c3)cccn2c1N(C)C(=O)c1ccc(C)cc1,"inconclusive: 11.2 µM [inhibitor, single point]",–
CC1CCCN(CCOCCOc2ccc(Br)cc2Cl)C1 (configuration not stated),"inconclusive: 11.2 µM [inhibitor, partial curve, poor fit]",–
CCCN1CCN(C(=O)C2CCN(c3nnc(C)c4c(C)n(-c5ccc(C)cc5)nc34)CC2)CC1,"inconclusive: 5.62 µM [inhibitor, partial curve, poor fit]",–
Cc1ccc(S(=O)(=O)N2C[C@H]3n4c(=O)ccc(=O)n4C[C@H](OC(=O)NCc4ccccc4)[C@@]3(O)C2)cc1,"inconclusive: 10 µM [inhibitor, partial curve, poor fit]",–

Compound,Potency,"activity change, negative = inhibition"
CCc1ccc(Cn2c(CNS(=O)(=O)c3ccc(F)c(Cl)c3)nc3cccnc32)cc1,inactive,–
COc1ccc(CSC(=S)NNc2ccccc2)cc1,"inconclusive: 7.08 µM [inhibitor, partial curve, poor fit]",–
C=CCN1c2ccccc2[C@]23C[C@@H](C(=O)OC)N(C(=O)c4cc(C)oc4C)C2=NC(C(=O)OC)=C(C(=O)OC)[C@H]13,"inconclusive: 31.6 µM [inhibitor, single point]",–
Cc1cc2oc(C(=O)N(Cc3ccccc3F)C3CCS(=O)(=O)C3)c(C)c2cc1Cl (configuration not stated),"inconclusive: 2.82 µM [inhibitor, single point]",–
COc1ccc(C(=O)c2ccccc2)c2c(O)ccc(C(=O)c3ccccc3)c12,"inconclusive: 5.01 µM [inhibitor, partial curve]",–
CCOC(=O)c1ccc(NC(=O)c2c(N3CCCC3=O)c3cc(OC)ccc3n2C)cc1,inactive,–
O=C(O)c1cc(S(=O)(=O)Nc2cc(Cl)ccc2Oc2ccccc2)ccc1O,"inconclusive: 28.2 µM [inhibitor, single point]",–
CCCCOc1ccc(C(=O)Nc2ccc(N3CCN(C(=O)C(C)C)CC3)cc2)cc1,"inconclusive: 5.01 µM [inhibitor, full curve, poor fit]",–
COc1ccccc1N1CCN(C(=O)c2ccc3[nH]c(C)c(C)c3c2)CC1,"inconclusive: 1.12 µM [inhibitor, full curve, poor fit]",–
Cc1ccc(OC[C@H](O)[C@H](C)NC(C)C)c2c1CCC2,"inconclusive: 11.2 µM [inhibitor, partial curve, poor fit]",–
Cc1ccc(S(=O)(=O)Cc2ccc(C(=O)N3CCc4ccccc4C3)o2)cc1,"inconclusive: 11.2 µM [inhibitor, partial curve, poor fit]",–
CSc1ccccc1OCc1cc(C(=O)N2CCN(C3CCCC3)C(=O)C2)no1,"inconclusive: 28.2 µM [inhibitor, single point]",–
COc1ccc(/C=C/C(=O)NC(=S)N2CCCCC2)cc1OC,inactive,–
O=[N+]([O-])c1ccc2c([N+](=O)[O-])ccc3c2c1CC3,inactive,–
CCN(CC(=O)Nc1ccccc1Br)C1CCCCC1,"inconclusive: 10 µM [inhibitor, partial curve, poor fit]",–
COC(=O)c1ccccc1NC(=O)CN1CCc2ccccc2C1,"inconclusive: 31.6 µM [inhibitor, single point]",–
CCC1CCCCN1C(=O)COc1ccc2c3c(c(=O)oc2c1)CCC3 (configuration not stated),inactive,–
CCOC(=O)C(=CNc1ccccc1Cl)C(=O)OCC,inactive,–
COCCNC(=O)c1ccc(NC(=O)C2(c3ccccc3)CCCC2)cc1,"inconclusive: 7.94 µM [inhibitor, partial curve, poor fit]",–
COc1ccc(C(=O)Nc2cnn(Cc3ccc(Cl)cc3)c2)cc1OC,"inconclusive: 0.794 µM [inhibitor, full curve, poor fit]",–
COc1ccc(N2C(=O)CC2(/C=C/c2ccccc2OC)C(=O)NC2CCCC2)cc1 (configuration not stated),"inconclusive: 5.01 µM [inhibitor, full curve, poor fit]",–

Compound,Potency,"activity change, negative = inhibition"
COc1ccc(NC(=O)c2cc(C3CCCCN3C(=O)Cc3ccc(N(C)C)cc3)on2)c(C)c1 (configuration not stated),"inconclusive: 10 µM [inhibitor, partial curve, poor fit]",–
Cn1c(NCC2CCCCC2)nc2cc(-c3ccsc3)sc2c1=O,inactive,–
Cc1cc2c(NC3CCCCC3)ncnc2s1,"inconclusive: 12.6 µM [inhibitor, single point]",–
Cc1ccc(N2C(=O)N(CC(=O)C(C)(C)C)c3ccccc3S2(=O)=O)cc1C,"inconclusive: 31.6 µM [inhibitor, single point]",–
O=C(NCCOc1ccccc1)c1ccccc1[N+](=O)[O-],inactive,–
O=C(NCCOc1ccccc1F)Nc1ccc(Br)cc1,"inconclusive: 12.6 µM [inhibitor, single point]",–
COc1cc(C2C=C(c3cccs3)Nc3ncnn32)cc(OC)c1OC (configuration not stated),inactive,–
CCC(=O)N1CCc2cc(S(=O)(=O)CCC(=O)NCc3ccc(C)cc3)ccc21,inactive,–
Cc1ccc(NC(=O)CN2C(=O)COc3ccc(S(=O)(=O)N4CCCC4)cc32)cc1C,"inconclusive: 7.94 µM [inhibitor, partial curve]",–
COC(=O)[C@@]1(Cc2ccc(F)cc2)[C@H]2c3cc(C(=O)N(C)C)n(Cc4ccccc4)c3C[C@H]2CN1C(=O)c1ccccc1,"inconclusive: 28.2 µM [inhibitor, single point]",–
CCOC(=O)c1c(NC(=O)c2cc3nc(-c4ccc(OC)cc4)cc(C(F)(F)F)n3n2)sc2c1CCC(C)C2 (configuration not stated),inactive,–
CCCCOC(=O)c1ccc(NC(=O)Cn2nnc3sc4c(c3c2=O)CCCC4)cc1,"inconclusive: 7.94 µM [inhibitor, partial curve]",–
O=C(/C=C/c1cccc(Br)c1)N1CCN(c2cccc(C(F)(F)F)c2)CC1,"inconclusive: 28.2 µM [inhibitor, single point]",–
CCc1cc(C(=O)Nc2cc(Cl)ccc2N2CCN(C)CC2)sc1C,inactive,–
Cc1csc(NC(=O)CSc2ncnc3ccccc23)n1,"inconclusive: 28.2 µM [inhibitor, single point]",–
Cc1ccc(SCCN2CCN(CCc3ccccc3)CCC2=O)cc1,inactive,–
Nc1c(-c2cccc(Cl)c2)cnn1-c1ccccc1,"inconclusive: 28.2 µM [inhibitor, single point]",–
O=C(NCc1cccs1)c1ccc(Cn2c(SCc3cccc(F)c3)nc3cccnc32)cc1,"inconclusive: 10 µM [inhibitor, partial curve, poor fit]",–
COc1ccc(S(=O)(=O)N2CCOc3ccccc32)cc1,active: 3.55 µM,–
CC[C@@H](C)[C@H](NC(=O)OC(C)(C)C)c1nnc(S(=O)(=O)Cc2cc(C)ccc2C)o1,"inconclusive: 28.2 µM [inhibitor, single point]",–
